The densities may have been worked out from excess volumes.
Test: xn = mol fraction of the nth substance listed
Settings: 101 kPa

CC(=O)[O-].CC[n+]1ccn(C)c1 + O
mass density [kg/m3]
Settings | x2 = 0.347 | x2 = 0.517 | x2 = 0.578 | x2 = 0.627 | x2 = 0.705
293.15 K | 1104.4 | 1107.2 | 1108.7 | 1108.5 | –
313.15 K | – | 1095.1 | 1097.3 | 1095.7 | 1094.9
333.15 K | 1080.7 | 1083 | 1085.1 | 1083.1 | 1081.5
353.15 K | 1068.5 | – | 1073.1 | 1070.9 | 1069.5

CC[NH+](C)CC.CS(=O)(=O)[O-] + O
mass density [kg/m3]
Settings | x2 = 0.372 | x2 = 0.449 | x2 = 0.507 | x2 = 0.624 | x2 = 0.707
293.15 K | – | 1133.6 | 1133 | 1128.4 | 1122.2
313.15 K | 1122.9 | 1120.5 | – | 1115.4 | –
333.15 K | 1109.7 | – | 1106.7 | 1102.3 | 1096.4
353.15 K | 1096.7 | – | 1093.5 | 1089.5 | –

From a compilation of properties of binary mixtures (doi:10.1021/je300132e)
